From PMC4336329 (PLoS ONE, 2015)
Screen size: about 310,000 compounds; about 2,200 (0.71%) showed an effect of 50% or more. Effects have a minus sign here. The list shows a part of the results.

Biological target: human ether-à-go-go-related gene (hERG) potassium channel (human, UniProt Q12809)
Test: primary screen, population patch clamp on CHO cells stably expressing hERG

human ether-à-go-go-related gene (hERG) potassium channel, sequence (Q12809 whole entry, looked up): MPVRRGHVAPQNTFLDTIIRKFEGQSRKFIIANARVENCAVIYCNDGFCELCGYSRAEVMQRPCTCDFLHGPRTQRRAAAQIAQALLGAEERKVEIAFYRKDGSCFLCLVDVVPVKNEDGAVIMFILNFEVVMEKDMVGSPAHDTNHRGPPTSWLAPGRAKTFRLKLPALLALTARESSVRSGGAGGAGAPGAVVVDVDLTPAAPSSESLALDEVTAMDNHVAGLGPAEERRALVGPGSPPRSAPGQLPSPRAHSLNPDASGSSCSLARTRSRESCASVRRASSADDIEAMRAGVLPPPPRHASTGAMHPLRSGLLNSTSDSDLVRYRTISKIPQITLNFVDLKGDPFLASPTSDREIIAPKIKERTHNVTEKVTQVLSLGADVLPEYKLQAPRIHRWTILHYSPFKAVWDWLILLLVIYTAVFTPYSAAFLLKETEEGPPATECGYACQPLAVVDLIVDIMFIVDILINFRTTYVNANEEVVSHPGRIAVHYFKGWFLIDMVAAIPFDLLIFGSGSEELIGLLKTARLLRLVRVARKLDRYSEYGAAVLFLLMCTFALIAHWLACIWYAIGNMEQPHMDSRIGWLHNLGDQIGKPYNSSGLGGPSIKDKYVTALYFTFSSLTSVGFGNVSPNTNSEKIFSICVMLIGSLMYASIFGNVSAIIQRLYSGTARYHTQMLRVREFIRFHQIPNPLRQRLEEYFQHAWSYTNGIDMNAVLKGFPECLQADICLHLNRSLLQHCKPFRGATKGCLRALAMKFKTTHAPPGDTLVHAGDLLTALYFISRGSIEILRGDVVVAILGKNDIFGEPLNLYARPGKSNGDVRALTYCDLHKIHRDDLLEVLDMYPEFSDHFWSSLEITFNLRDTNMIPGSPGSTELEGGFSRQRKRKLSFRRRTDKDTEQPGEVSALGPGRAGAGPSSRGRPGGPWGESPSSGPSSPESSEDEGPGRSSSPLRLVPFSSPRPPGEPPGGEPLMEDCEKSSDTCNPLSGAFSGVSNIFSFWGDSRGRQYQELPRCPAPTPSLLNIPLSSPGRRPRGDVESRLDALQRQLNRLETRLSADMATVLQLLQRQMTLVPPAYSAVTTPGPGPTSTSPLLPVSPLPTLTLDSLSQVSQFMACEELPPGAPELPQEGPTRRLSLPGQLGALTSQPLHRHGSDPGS

Structure (SMILES) | hERG current change (%, negative = inhibition) at 1uM [%]
CCN(CC)c1ccc(C(=O)c2ccccc2C(=O)O)c(O)c1 | 11.7
CN(C)C(CNC(=O)C1CCCN(C(=O)c2ccc(Cl)cc2)C1)c1ccco1 (stereo not drawn) | 10.9
Cn1c(=O)c2ncn(CC(=O)Nc3cc(C(F)(F)F)ccc3N3CCOCC3)c2n(C)c1=O | -21.9
O=C(Nc1ccc(Oc2cccnc2)cc1)C1CCN(Cc2ccc(F)cc2)CC1 | -6.12
Cn1c(=O)c2c(nc(N3CCOCC3)n2CC(=O)C23CC4CC(CC(C4)C2)C3)n(C)c1=O | -12.3
COCc1ccc(CN2CCc3c([nH]c4ccccc34)C2CC(C)C)o1 (stereo not drawn) | 4.93
O=C(O)c1cc(-c2ccc(O)cc2)nc2ccccc12 | 19.1
O=C(c1cccs1)N1CCN(c2ccccc2)CC1 | 5.61
COc1cc(C(=O)OCc2nc3ccsc3c(=O)[nH]2)c([N+](=O)[O-])cc1OC | 2.78
Cc1ccccc1Nc1nn2c(=O)c3ccccc3nc2s1 | 12
CC(=O)Nc1ccc(N=Nc2ccc(O)cc2)cc1 | 14.2
CC(=O)c1ccc(NC(=O)C2C3C=CC(O3)C2C(=O)O)cc1 (stereo not drawn) | 8.15
O=c1cc(CO)occ1OCc1c(F)cccc1Cl | 6.14
COc1cc(NC(=O)c2cc(Br)cc(C)c2OC)ccc1NC(=O)C(C)C | 10.6
CCCC(C)C(=O)Nc1ccc(S(N)(=O)=O)cc1 (stereo not drawn) | 13
COc1ccccc1-c1nn(-c2ccccc2)cc1C(=O)NC1CC1 | 8.95
CCCCN1CCCCC1C(=O)Nc1c(C)cc(C)cc1C.Cl (stereo not drawn) | -10.5
O=C(CN1CCc2ccccc21)NC(=O)NCc1ccco1 | 1.15
Cc1ccc(C(=O)Nc2ccccc2Cl)cc1 | 15.1
Cc1cccc(NC(=S)N2CC3CC(C2)c2cccc(=O)n2C3)c1C (stereo not drawn) | 24.7
Cc1ccc2nc3c(nc2c1C)C(O)=C3O | 10.5
COc1ccc(CC(=O)N2C[C@H]3C[C@@H](C2)c2cccc(=O)n2C3)cc1 | 4.14
COc1ccc(NC(=O)Cn2nnc(C(=O)NCCc3ccccc3)c2N)cc1 | 12.4

Structure (SMILES) | hERG current change (%, negative = inhibition) at 1uM [%]
CCCCN(C(=O)c1cccc(S(=O)(=O)N2CCN(C)CC2)c1)c1c(N)n(CCCC)c(=O)[nH]c1=O | 12.4
COc1cc(NCc2ccccc2)c2ncn(C(C)C)c2c1 | 2.13
Cc1ccc(-c2cc(C(=O)NCCCN3CCOCC3)c3ccccc3n2)cc1C | 6.36
Cc1ccc(CSc2ccc(S(=O)(=O)N3CCCC3)cn2)cc1 | 3.47
Br.CC(C)(C)c1ccc(-c2csc(NNC3=NCCCCC3)n2)cc1 | 6.27
CCOC(=O)c1nn(-c2cc(C(=O)OC)cc(C(=O)OC)c2)cc1O | 4.07
CCC(C)N=CC1=C(O)CC(c2ccccc2)CC1=O (stereo not drawn) | 1.68
CCCCOC(=O)C1=C(C)NC(=O)NC1c1ccc(N(C)C)cc1 (stereo not drawn) | 14.9
Cc1cc(C)cc(N/C(N)=N/c2nc(C)cc(C)n2)c1 | -11
CC(Oc1ccc(-c2ccccc2)c(F)c1)c1ccn(S(=O)(=O)c2ccc(Br)cc2)n1 (stereo not drawn) | 7.72
COC(CNC(=O)c1ccc2c3c(onc13)-c1ccccc1C2=O)OC | 10.5
Cc1nn(C(=O)Cn2ccc([N+](=O)[O-])n2)c(C)c1Br | -0.108
O=C(CSc1nc2ccccc2c(=O)n1CCCN1CCOCC1)NC12CC3CC(CC(C3)C1)C2 | 1.06
Cc1ccc(-n2c(-c3ccncc3)n[nH]c2=S)c(C)c1 | 4.47
O=S(=O)(/N=C(/Nc1ccccn1)c1ccc(Cl)cc1)c1ccc(Cl)cc1 | 4.53
Cc1nc2scc(C)n2c(=O)c1S(=O)(=O)Nc1ccc(N2CCN(C(=O)C(C)C)CC2)cc1 | 15
CC(C)c1ccc(OCc2ccc(C(=O)N3CCN(c4ccccn4)CC3)cc2)cc1 | -7.79
O=C(CN1CCN(c2ccccc2O)CC1)Nc1ccc2c(c1)CCC2 | -1.55
COc1cccc(/C(=N/O)C2CC2c2ccc(Cl)cc2)c1 (stereo not drawn) | 15.7
COc1ccc(N(CC(=O)Nc2ccc(C)cc2C)S(=O)(=O)c2c(C)n[nH]c2C)cc1 | 13
O=C(CCNc1ccccc1)c1cccc([N+](=O)[O-])c1 | -10.9
COc1ccc(-c2c(-c3ccsc3)oc(=O)c3cc(OC)c(OC)cc23)cc1 | 10.3
N/C(=N\NC(=O)c1cccc(F)c1)c1cc2ccccc2oc1=O | 10.5

Structure (SMILES) | hERG current change (%, negative = inhibition) at 1uM [%]
Cc1oc(-c2cccc(Cl)c2)[n+]([O-])c1C.Cl | 10.3
Cc1ccsc1CN(C)C(=O)CCc1nnc(COc2ccccc2)o1 | -0.259
O=S(=O)(c1cccc2ccccc12)n1nnc2ccccc21 | 12.8
Cc1cccc(-c2n[nH]c(=S)n2-c2ccccc2)c1[N+](=O)[O-] | 11.4
CC(C)O/C(=N\S(=O)(=O)c1ccc(Cl)cc1)c1ccccc1 | -4.57
N#Cc1ccc(OC(=O)c2cnccn2)cc1 | 10.6
O=C(Nc1cc(F)ccc1F)N1CCN(c2ccnc3cc(Cl)ccc23)CC1 | -19.9
Cc1ccc(NCc2nnc(SCC(=O)NCc3ccco3)n2CC2CCCO2)cc1Cl (stereo not drawn) | -5.15
c1ccc(CN(Cc2ccccc2)c2ncnc3c2nnn3Cc2ccccc2)cc1 | 13
COc1cccc(CN=C2Nc3ccccc3CS2)c1 | 15.4
O=C(NCCc1ccc(Cl)cc1)C1CCC(=O)N1Cc1ccccc1Cl (stereo not drawn) | -0.692
CCN(CC)CCCCN1c2ccccc2Sc2ccccc21.Cl | 3.62
CCN(C1CCS(=O)(=O)C1)S(=O)(=O)c1ccc2ccccc2c1 (stereo not drawn) | 5.58
CN1C(C(=O)NCc2ccco2)CC2Cn3c(nc4cc(Cl)c(Cl)cc43)C21 (stereo not drawn) | -1.47
COc1cccc(NC(=O)CN(C)C(=O)CNC(=O)c2ccccc2F)c1 | 10.5
COc1cccc(C(=O)N2CCN(C(=O)c3cccc4ccccc34)CC2)c1OC | 12.5
COC(=O)c1ccc(N2OC3(C)C=CC2CC3)cc1 (stereo not drawn) | 11
Cc1cc(C)n(C(=O)c2ccc(C)c(Br)c2)n1 | 12.4
Cc1cc(Cl)ccc1OC(C)C(=O)NC(C)C1CCCO1 (stereo not drawn) | 6.71
CCC(CO)Oc1cc(NC(=O)c2ccc(C)cc2)c2ncn(C(C)C)c2c1 (stereo not drawn) | 8.6
CC(C)CCCN1C(N(C)C)=NC[C@@H]1Cc1ccccc1 | -2.29
CC(C)=C1SC(N2CCOCC2)=NC1=O | 12.9
O=S(=O)(c1ccc(F)cc1)N1CCC(O)(c2ccc3c(c2)OCO3)CC1 | 0.314

Structure (SMILES) | hERG current change (%, negative = inhibition) at 1uM [%]
Nc1nc(N2CCN(c3ccccc3)CC2)n[nH]1 | 6.41
Fc1ccc(CNCCc2ccc3c(c2)OCO3)cc1 | 13.8
O=C(C[n+]1ccc(C(=O)NCc2ccccc2)cc1)c1ccc(OC(F)F)cc1.[Br-] | -81.2
Cc1ccc(C(=O)Nc2cccc(NC(=O)c3ccc(C)cc3)n2)cc1 | 6.48
CCCCCn1c(=O)[nH]c2cc(C(=O)NCCCN3CCCCC3CC)ccc2c1=O (stereo not drawn) | -7.23
COCCN1C(=O)N[C@@H](c2ccccc2)C(C(C)=O)=C1C | 18.1
COc1ccc(NC(=O)C2CCCN(S(=O)(=O)c3cccnc3)C2)cc1OC (stereo not drawn) | 14.7
O=C(NN1CCOCC1)c1ccc(Br)cc1 | 10.5
Cc1ccc(OCCC(=O)OCC(=O)Nc2ccc(N3CCOCC3)cc2)cc1 | 9.86
O=C(c1ccc(S(=O)(=O)N2CCCCCC2)cc1)N1CCN(Cc2ccccc2)CC1 | 5.56
Cc1ccccc1Nc1c(-c2cccnc2)nc2ccccn12 | -0.963
CSc1nc2ccc(NS(=O)(=O)c3ccc(Cl)s3)cc2s1 | 11.5
CC(=O)C1=C(O)C(=O)N(Cc2ccccc2)C1c1ccc(F)cc1 (stereo not drawn) | 14
CS(=O)(=O)N1N=C(c2ccco2)CC1c1cccc([N+](=O)[O-])c1 (stereo not drawn) | 6.47
CCN1C(=O)c2ccc(C(=O)Nc3ncc(C)s3)cc2C1=O | 8.87
Cc1ccc([N+](=O)[O-])cc1NC(=O)c1ccccc1 | 0.0028
COc1cc2[nH]c(C(=O)N3CCN(c4ccc(F)cc4)CC3)cc2c(OC)c1OC | 15.4
COc1cccc(CNC(=O)c2ccccc2NC(=O)C2=C(C)OCCS2)c1OC | 8.72
O=C(c1ccc([N+](=O)[O-])s1)N1CCCc2ccccc21 | 11.1
CCCc1nnc(NC(=O)C(C)N2C(=O)C3C4C=CC(C4)C3C2=O)s1 (stereo not drawn) | 11
O=C(CCCN1C(=O)C(c2ccccc2)Oc2cccnc21)Nc1cccc(F)c1 (stereo not drawn) | 9.02
